{"source": "patent US12076300B2", "about": "“Dosage regime with esketamine for treating major depressive disorder” (priority 2019, dated 2024)", "test_system": "bone marrow cells of Crl:CD(SD) rats", "assay": "Mammalian erythrocyte micronucleus test", "details": "male or female rats, oral gavage"}
{"smiles": "CN[C@]1(c2ccccc2Cl)CCCCC1=O", "note": "[esketamine, (2S)-2-(2-Chlorophenyl)-2-(methylamino) cyclohexanone]", "values": [{"measurement": "induction of micronucleated polychromatic erythrocytes or bone marrow cell toxicity (study conclusion)", "value": "has not shown any evidence of causing an increase"}]}
